Source: the supplement of paper PMC11417369
This is one part of the list.

The sequences below were run on PfHDP1 homeodomain (GST-tagged) (assay: gcPBM binding intensity (ln(normalized median fluorescence intensity)); higher = stronger DNA binding).
Procedure, shortened: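 In this array assay, P. falciparum DNA-binding domains with a GST tag, expressed in E. coli, were applied for 1 h to primer-extended double-stranded 36-bp intergenic genomic probes and negative controls on an Agilent 4 × 180k array. Bound protein was visualised with Alexa488 anti-GST antibody at 488 nm. Binding intensity is the highest Masliner-normalised natural-log median intensity across replicate spots of either probe orientation.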

Row | Sequence | gcPBM binding intensity (ln)
1 | AAATGAACATATATGTGTACTTATATTTTTCTAAAT [XGTACX_site3388] | 6.38
2 | AATTGTTTTTTTTTCTTATTTTATGTTATACACACA [TGCATGCA_negctrl_site380] | 6.83
3 | AAAAAAAAAAAAAACACATGCAGAAGAAAAAAAATA [TGCATGCA_site545] | 6.45
4 | TCATTAAATGTTTAGGTGCATACTTTAATTTTTAAT [GTGCAC_site9906] | 9.31
5 | AAAAAAAAAAAAAAAGTGCATATATAAATATTGTAT [GTGCAC_site9459] | 7.19
6 | AAATATTATAATAATTGTACTATATATACAGTTATT [XGTACX_site1963] | 6.39
7 | AAAAAAAAAAAATTATGTACATATTATATATAATGG [XGTACX_site2885] | 6.71
8 | TAAAATATGTCATGGGTGCTTCTTTTTATACCTATG [GTGCAC_site9888] | 6.29
9 | ATATATATATATTTATGTACGCATTTATAGACGTAG [XGTACX_site6031] | 8.7
10 | TGTTTTTAAAAATATACACACACAGATATTATATAT [CACACA_site8162] | 6.73
11 | TTTTATATTTATTTTTGTACATAAATGATCTCAAAT [XGTACX_site7768] | 6.46
12 | AGAAAAAAAAAAAAAAATAAAAAAATAAATAAATAA [GTGCAC_negctrl_site161] | 6.13
13 | ACTTAAATAATACATACACACATGTACTTACAGAAA [CACACA_site8458] | 6.71
14 | TATGATAACCATAATTGTACAGAATGAAACGTAAAT [XGTACX_site1653] | 7.03
15 | CACAAATATATACATACACACATATATACACATATA [CACACA_site8024] | 6.84
16 | AAAACGCAGTTTAATATACACACCAAAAAAAAAAAA [CACACA_site3036] | 6.31
17 | TTTGAGATGTGGTGTACACAAAATTAGGTACACATC [CACACA_site5773] | 6.81
18 | ATAAATATAAAACACACACACATATTATATATATAT [CACACA_site3064] | 8.71
19 | AAAAAAAAAAAAAAGTGTACCTTCAAAATAATATTG [XGTACX_site2844] | 6.27
20 | CCTTTTTCTACTTTCTCACACATATTAAGAATTATA [CACACA_site5621] | 7.06
21 | TCTTTCCTTATTAAAACACACAAATACATTATTTAA [CACACA_site2147] | 6.7
22 | AAGTTTTTTTTTATCACACACAAAAAAAAAAATATA [CACACA_site1362] | 6.15

Row | Sequence | gcPBM binding intensity (ln)
23 | AAAAAATGAAAAAACTGTACGCAATTTTGTTTTTAT [XGTACX_site2299] | 6.18
24 | ATGTGAAAATAAGACACACTCAAAAGGTTTATATTA [CACACA_site4595] | 6.24
25 | TTTTTATATAATTTAACACACATTTCATATAAAAAA [CACACA_site3103] | 6.55
26 | ATATACTGTATGAAAGCACACATACTTATTACTAAC [CACACA_site9384] | 6.55
27 | AAAAAATTTCAAATAACACACACTAATATAAATATG [CACACA_site6783] | 6.63
28 | TAACTTTGGAGGAGCTGTACGATTATTTTGATCCTT [XGTACX_site2514] | 6.27
29 | TTTAAAAAATAATATTGTACTATTCTCCCAATTTCT [XGTACX_site7079] | 6.03
30 | TGGGAAAAAATATATGCACACCCCCCAAAAAAAAAA [CACACA_site8696] | 10.6
31 | AAAAAATGTTATAAAAGTACATAATTTATCTACCAT [XGTACX_site3035] | 6.02
32 | AATTCTTTATTATATGCACACGTACATATAATATAT [CACACA_site8621] | 9.66
33 | AGTCTATAGTAATTTACACACAAAAAAATATCAGGA [CACACA_site7620] | 6.72
34 | AGTAGTCTGGAGAAAAGTACATAGTATCTGGTAGCT [XGTACX_site2027] | 6.41
35 | CTTATATTAAGTATTACACACATATATATAAATGCA [CACACA_site4581] | 6.47
36 | CCTAAATAAATGGACACACACATATATATATATATA [CACACA_site1439] | 9.37
37 | TAGAAATAAGAAAAATGTACATATAATATTGAAAGT [XGTACX_site3043] | 7.3
38 | TATATATATATAAGAAGTACAGAAAATTAGAAAAAA [XGTACX_site8773] | 8.65
39 | TTTTACGTAATATTTATACACACGAACCTTATTAAT [CACACA_site2300] | 6.61
40 | AATATCTTAGTGGATACACACATATAAATGGGTATT [CACACA_site4426] | 6.35
41 | TCATATGTTAAACACACACACACACCGAAAAAAACA [CACACA_site9067] | 6.88
42 | AAAAAATTAAAAAAAAAAAAATCATGAAAAAAACAA [CACACA_negctrl_site1673] | 6.37
43 | TTTATTGATAATATATATATATATATATATATATAT [GTGCAC_negctrl_site552] | 9.39
44 | AGAACATGCAAACATGCACACAGAAAAAAAAAATAT [CACACA_site8442] | 9.36

Row | Sequence | gcPBM binding intensity (ln)
45 | GTTTTATTCCATTATTGTACTTAATATAAAGAAACT [XGTACX_site3054] | 6.61
46 | ATAATAATATGTGGGTGTACATATACACATATATAT [XGTACX_site4356] | 6.96
47 | AGAAAAATCTAAATTCGTACATAACGTTTAAACATA [XGTACX_site2511] | 6.12
48 | AGGATATAAAGTTGTGCATGTCAAGTGCACCGTATT [TGCATGCA_site451] | 10.2
49 | GATGTGTATATTAAATGTACGAACAGTTGAGGCGAA [XGTACX_site7853] | 7.44
50 | ATGTTACACAGACACACACACATAAAAAAACAAAAA [CACACA_site7516] | 7.17
51 | TTTTTAAAAAATAAGAAAAAATAAATATATTACAAA [XGTACX_negctrl_site191] | 6.58
52 | CAGCATGGTATACCTATAAAATATATATACTAACAT [TGCATGCA_negctrl_site51] | 6.57
53 | CACATACATATATATACACACAAATATATATACGCA [CACACA_site791] | 6.92
54 | GGCATATATACATATGGTACACATTTATTAATACCG [XGTACX_site2710] | 6.27
55 | ATACTAAAAATGAATGTACACATATATATATATATA [TGCATGCA_negctrl_site209] | 9.26
56 | AAAAAAAATAAAAATAGTACCCAAAAAATTATGAAT [XGTACX_site6641] | 6.44
57 | TATAATAAAATATTTTGTACGTATATTTTAATATTT [XGTACX_site2582] | 6.29
58 | TTTTTATAAAAATGAACACACACATATATATATATA [CACACA_site9160] | 9.22
59 | AATAACACTATTTAACGTACAAAAAAAAAAAAGAAA [XGTACX_site3721] | 6.4
60 | AAAAAATATAATAATTGTACACATGCACACACAAAT [XGTACX_site1563] | 8.65
61 | TTTCATATCTTGTCAAGTACATATTTTTATTTTCTT [XGTACX_site2160] | 6.2
62 | ACTTAATATCGGTACACACACAAGATAAGAATTATG [CACACA_site894] | 6.62
63 | AATTAATAAATATTATATGTTAATATTTTTTTTGTT [CACACA_negctrl_site1692] | 5.93
64 | AGAGGAGTAAAACAAAACAAAGAGAAATAAACACAC [XGTACX_negctrl_site386] | 7.5
65 | CACAGACACGGACACACACACACAAAAAAAAAAAGA [CACACA_site4436] | 6.8
66 | TATTTTCTTTAATTAATTATTGGTCTGAATGGGGTT [CACACA_negctrl_site418] | 6.82

Row | Sequence | gcPBM binding intensity (ln)
67 | TATTAAAAAAATATTTGTACTTAAAATTTATTATAT [XGTACX_site1467] | 6.08
68 | AAAAAGGAAATAATAACACACATTAGTAATTATAAA [CACACA_site7573] | 6.23
69 | ACAAAAAAAAAAAAAAAAAGAAGAATATATCTATAT [CACACA_negctrl_site759] | 6.12
70 | TATCATACAATATTCACACAAATAAATTGACATATT [CACACA_site5891] | 6.53
71 | AATTGTATGTATGCCTGTACATATGTCTATCTTAAG [XGTACX_site1927] | 6.14
72 | TATTTTATATGAGGCACACAAATTTTAATTGTTATT [CACACA_site725] | 5.99
73 | ATTTATTTATTTTTTTGTACTTATAATTTTTATTAT [XGTACX_site2656] | 6.59
74 | AGGAATATCGAAAACTGTACTTGTATGTTTCATAAA [XGTACX_site6143] | 6.06
75 | TATAAAAATAATATTACACACATGTAAAATGGGGGT [CACACA_site9071] | 7.03
76 | ATACACTTAATATTATGTACATATATAAAAAAAATA [XGTACX_site1500] | 6.6
77 | TATATTTAAATTCTTTCAAATCATGTTGTAATTTTT [CACACA_negctrl_site1349] | 6.3
78 | CATAAAAATGGATACACACACATAATATATTTATAT [CACACA_site7669] | 6.67
79 | ACAATATATTCATATTGTACATAAAATAAGGCTAAC [XGTACX_site6728] | 6.83
80 | TTTTCAGAAAAGAGAAACTTTATTTTTCACAACCGA [TGCATGCA_negctrl_site389] | 6.18
81 | ATTTTTTATGAAAATAAACACACGATTTATTATATA [CACACA_site1312] | 6.11
82 | TGTAGTCATTAGTCAAATTAGAATTAAATATATATT [GTGCAC_negctrl_site643] | 6.17
83 | TAAAAAATTATTAAACGTACGAGACTTTTTATCAGT [XGTACX_site2219] | 6.4
84 | TCTTTTTTAATATAATATATTTTTATTAAGTAAATC [TGCATGCA_negctrl_site408] | 6.2
85 | TAAATTTATGGACACACACACATATATATATATATA [CACACA_site4620] | 9.3
86 | TATTTATCTATATATTGTACTTATTAGTCTTAATGT [XGTACX_site4242] | 6.47
87 | AAATTTTAATTAGGAACACACATATATATATATATA [CACACA_site5673] | 9.27
